Where a name gives a salt, the structure may show the parent alone.
Test system: human small cell lung cancer (SW1271 cell line)
Assay: […]-GLO luminescent cell viability assay
Assay type: cell-based

Row | Structure (SMILES) | decline in IC50 value of carboplatin (in combination with LSE vs carboplatin alone) | IC50 (positive controls alone, 5 days incubation) | IC50 (Homo sapiens, SW1271, 120 h)
1 | N.N.O=C([O-])C1(C(=O)[O-])CCC1.[Pt+2] [carboplatin, cis-Diamine [1,1-cyclobutanedicarboxylato]platinum II] | 65% | 18.754 µg/mL | 
2 | CCc1c2c(nc3ccc(OC(=O)N4CCC(N5CCCCC5)CC4)cc13)-c1cc3c(c(=O)n1C2)COC(=O)[C@]3(O)CC [irinotecan, Irinotecan hydrochloride] |  |  | 5.81 µg/mL

— patent publication US8501241B1, “Treating cancer with a whole, leech saliva extract” (priority 2012, dated 2013)
